According to the supplement of paper PMC8728848:
The list shows a part of the results.

What was measured:
Assay in all cases: glycan array binding signal (z-score within array); higher = stronger binding
Conditions in all cases: glycan notation: IUPAC condensed, linker removed
[1] = biological target: Gal(b1-2)Gal
How it was run: (§1)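 The binding signal is a Z-score computed within each array and averaged over linkers. Arrays of the same protein sequence at different concentrations or buffers were also averaged together. Data originate from 3228 arrays in the Consortium for Functional Glycomics database, kept only where the protein sequence was available.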

[2] = biological target: Gal(b1-3)Gal
How it was run: as §1

[3] = biological target: Gal(b1-3)Gal(b1-4)GlcNAc
How it was run: as §1

[4] = biological target: Gal(b1-3)GalNAc
How it was run: as §1

[5] = biological target: Gal(b1-3)GalNAc(b1-3)Gal(a1-4)Gal(b1-4)Glc
How it was run: as §1

[6] = biological target: Gal(b1-3)GalNAc(b1-4)Gal(b1-4)Glc
How it was run: as §1

[7] = biological target: Gal(b1-3)GalNAc(b1-4)[Neu5Ac(a2-3)]Gal(b1-4)Glc
How it was run: as §1

[8] = biological target: Gal(b1-3)GlcNAc
How it was run: as §1

[9] = biological target: Gal(b1-3)GlcNAc(b1-2)Man(a1-3)[Gal(b1-3)GlcNAc(b1-2)Man(a1-6)]Man(b1-4)GlcNAc(b1-4)GlcNAc
How it was run: as §1

[10] = biological target: Gal(b1-3)GlcNAc(b1-3)Gal(b1-3)GlcNAc
How it was run: as §1

[11] = biological target: Gal(b1-3)GlcNAc(b1-3)Gal(b1-4)Glc
How it was run: as §1

[12] = biological target: Gal(b1-3)GlcNAc(b1-3)Gal(b1-4)GlcNAc
How it was run: as §1

[13] = biological target: Gal(b1-3)[Fuc(a1-4)]GlcNAc
How it was run: as §1

[14] = biological target: Gal(b1-3)[Fuc(a1-4)]GlcNAc(b1-3)Gal(b1-3)[Fuc(a1-4)]GlcNAc
How it was run: as §1

[15] = biological target: Gal(b1-3)[Fuc(a1-4)]GlcNAc(b1-3)Gal(b1-4)GlcNAc
How it was run: as §1

[16] = biological target: Gal(b1-3)[Fuc(a1-4)]GlcNAc(b1-3)Gal(b1-4)[Fuc(a1-3)]GlcNAc
How it was run: as §1

[17] = biological target: Gal(b1-3)[GlcNAc(b1-6)]GalNAc
How it was run: as §1

[18] = biological target: Gal(b1-3)[Neu5Ac(a2-6)]GalNAc
How it was run: as §1

[19] = biological target: Gal(b1-3)[Neu5Ac(a2-6)]GlcNAc(b1-6)Gal(b1-4)Glc
How it was run: as §1

[20] = biological target: Gal(b1-3)[Neu5Ac(b2-6)]GalNAc
How it was run: as §1

[21] = biological target: Gal(b1-4)GalNAc(a1-3)[Fuc(a1-2)]Gal(b1-4)GlcNAc
How it was run: as §1

[22] = biological target: Gal(b1-4)GalNAc(b1-3)[Fuc(a1-2)]Gal(b1-4)GlcNAc
How it was run: as §1

[23] = biological target: Gal(b1-4)Glc
How it was run: as §1

[24] = biological target: Gal(b1-4)Glc6S
How it was run: as §1

[25] = biological target: Gal(b1-4)GlcNAc
How it was run: as §1

[26] = biological target: Gal(b1-4)GlcNAc(a1-6)Gal(b1-4)GlcNAc
How it was run: as §1

[27] = biological target: Gal(b1-4)GlcNAc(b1-2)Man(a1-3)[Gal(b1-4)GlcNAc(b1-2)Man(a1-6)]Man(b1-4)GlcNAc(b1-4)GlcNAc
How it was run: as §1

[28] = biological target: Gal(b1-4)GlcNAc(b1-3)Gal(b1-3)GlcNAc
How it was run: as §1

[29] = biological target: Gal(b1-4)GlcNAc(b1-3)Gal(b1-4)Glc
How it was run: as §1

[30] = biological target: Gal(b1-4)GlcNAc(b1-3)Gal(b1-4)GlcNAc
How it was run: as §1

B1: Factor H (Homo sapiens), P08603 (protein)
chain: MRLLAKIICLMLWAICVAEDCNELPPRRNTEILTGSWSDQTYPEGTQAIYKCRPGYRSLGNVIMVCRKGEWVALNPLRKCQKRPCGHPGDTPFGTFTLTGGNVFEYGVKAVYTCNEGYQLLGEINYRECDTDGWTNDIPICEVVKCLPVTAPENGKIVSSAMEPDREYHFGQAVRFVCNSGYKIEGDEEMHCSDDGFWSKEKPKCVEISCKSPDVINGSPISQKIIYKENERFQYKCNMGYEYSERGDAVCTESGWRPLPSCEEKSCDNPYIPNGDYSPLRIKHRTGDEITYQCRNGFYPATRGNTAKCTSTGWIPAPRCTLKPCDYPDIKHGGLYHENMRRPYFPVAVGKYYSYYCDEHFETPSGSYWDHIHCTQDGWSPAVPCLRKCYFPYLENGYNQNYGRKFVQGKSIDVACHPGYALPKAQTTVTCMENGWSPTPRCIRVKTCSKSSIDIENGFISESQYTYALKEKAKYQCKLGYVTADGETSGSITCGKDGWSAQPTCIKSCDIPVFMNARTKNDFTWFKLNDTLDYECHDGYESNTGSTTGSIVCGYNGWSDLPICYERECELPKIDVHLVPDRKKDQYKVGEVLKFSCKPGFTIVGPNSVQCYHFGLSPDLPICKEQVQSCGPPPELLNGNVKEKTKEEYGHSEVVEYYCNPRFLMKGPNKIQCVDGEWTTLPVCIVEESTCGDIPELEHGWAQLSSPPYYYGDSVEFNCSESFTMIGHRSITCIHGVWTQLPQCVAIDKLKKCKSSNLIILEEHLKNKKEFDHNSNIRYRCRGKEGWIHTVCINGRWDPEVNCSMAQIQLCPPPPQIPNSHNMTTTLNYRDGEKVSVLCQENYLIQEGEEITCKDGRWQSIPLCVEKIPCSQPPQIEHGTINSSRSSQESYAHGTKLSYTCEGGFRISEENETTCYMGKWSSPPQCEGLPCKSPPEISHGVVAHMSDSYQYGEEVTYKCFEGFGIDGPAIAKCLGEKWSHPPSCIKTDCLSLPSFENAIPMGEKKDVYKAGEQVTYTCATYYKMDGASNVTCINSRWTGRPTCRDTSCVNPPTVQNAYIVSRQMSKYPSGERVRYQCRSPYEMFGDEEVMCLNGNWTEPPQCKDSTGKCGPPPPIDNGDITSFPLSVYAPASSVEYQCQNLYQLEGNKRITCRNGQWSEPPKCLHPCVISREIMENYNIALRWTAKQKLYSRTGESVEFVCKRGYRLSSRSHTLRTTCWDGKLEYPTCAKR
B1 was tested, and the “glycan array binding signal (z-score)” value [1] was -0.341, the “glycan array binding signal (z-score)” value [2] was 0.204 and the “glycan array binding signal (z-score)” value [3] was -0.076. For the same binder, the “glycan array binding signal (z-score)” value [4] was -0.343, the “glycan array binding signal (z-score)” value [5] was -0.456 and the “glycan array binding signal (z-score)” value [6] was 0.224. The “glycan array binding signal (z-score)” value [7] was -0.086, the “glycan array binding signal (z-score)” value [8] was 0.497 and the “glycan array binding signal (z-score)” value [9] was -0.48. The “glycan array binding signal (z-score)” value [10] was 1.31, the “glycan array binding signal (z-score)” value [11] was 0.192 and the “glycan array binding signal (z-score)” value [12] was -0.154. For the same binder, the “glycan array binding signal (z-score)” value [13] was 0.373, the “glycan array binding signal (z-score)” value [14] was -0.459 and the “glycan array binding signal (z-score)” value [15] was 0.011. For the same binder, the “glycan array binding signal (z-score)” value [16] was -0.617, the “glycan array binding signal (z-score)” value [17] was -0.403 and the “glycan array binding signal (z-score)” value [18] was -0.315. The “glycan array binding signal (z-score)” value [19] was -0.265, the “glycan array binding signal (z-score)” value [20] was -0.367 and the “glycan array binding signal (z-score)” value [21] was -0.392. For the same binder, the “glycan array binding signal (z-score)” value [22] was 1.06, the “glycan array binding signal (z-score)” value [23] was -0.481 and the “glycan array binding signal (z-score)” value [24] was -0.221. For the same binder, the “glycan array binding signal (z-score)” value [25] was -0.161, the “glycan array binding signal (z-score)” value [26] was -0.37 and the “glycan array binding signal (z-score)” value [27] was -0.677. For the same binder, the “glycan array binding signal (z-score)” value [28] was -0.455, the “glycan array binding signal (z-score)” value [29] was -0.248 and the “glycan array binding signal (z-score)” value [30] was 0.317.
